# In the supplement of paper PMC8728848:
# The list shows a part of the results.
# B1: LICBM33A (Lactococcus lactis), Q9CE94 (protein)
# chain: MKKLLTGLLVAAGLLSVSLLIKTDTVSAHGYVQSPPARGYQGQLDSQSLGWTAAFNIYGNVISNPQSLEAPKGFPECGPADGRIASANGGLGQIGDFVLDNQTSSRWKKTSISTGSNIFTWKYTAPHKTTKWHYYMTKTGWDQNAPLKHSELELIGTINHDGSPATNNLSHTINIPTDRSGYHIVLAVWDVADTSNAFYNVIDINVNNKNASSQVFGPFL
# Tests used:
# Assay in all cases: glycan array binding signal (z-score within array); higher = stronger binding
# Details in all cases: glycan notation: IUPAC condensed, linker removed
# [1] = target: Neu5Ac(a2-3)Gal(b1-4)GlcNAc(b1-3)[Neu5Ac(a2-3)Gal(b1-4)GlcNAc(b1-6)]GalNAc
# How it was run: (§1)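 From the Consortium for Functional Glycomics database, 3228 arrays were curated, keeping only those whose protein sequence was available. Binding is given as a within-array Z-score averaged across arrays sharing a protein sequence and across linkers. Negative Z-scores can be read as non-binding.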
# [2] = target: Neu5Ac(a2-3)Gal(b1-4)GlcNAc(b1-6)GalNAc
# How it was run: as §1
# [3] = target: Neu5Ac(a2-3)Gal(b1-4)GlcNAc(b1-6)[Gal(b1-3)]GalNAc
# How it was run: as §1
# [4] = target: Neu5Ac(a2-3)Gal(b1-4)GlcNAc(b1-6)[Neu5Ac(a2-3)Gal(b1-3)]GalNAc
# How it was run: as §1
# [5] = target: Neu5Ac(a2-3)Gal(b1-4)GlcNAc6S
# How it was run: as §1
# [6] = target: Neu5Ac(a2-3)Gal(b1-4)[Fuc(a1-3)]GlcNAc
# How it was run: as §1
# [7] = target: Neu5Ac(a2-3)Gal(b1-4)[Fuc(a1-3)]GlcNAc(b1-2)Man
# How it was run: as §1
# [8] = target: Neu5Ac(a2-3)Gal(b1-4)[Fuc(a1-3)]GlcNAc(b1-3)Gal
# How it was run: as §1
# [9] = target: Neu5Ac(a2-3)Gal(b1-4)[Fuc(a1-3)]GlcNAc(b1-3)Gal(b1-4)GlcNAc
# How it was run: as §1
# [10] = target: Neu5Ac(a2-3)Gal(b1-4)[Fuc(a1-3)]GlcNAc(b1-3)Gal(b1-4)[Fuc(a1-3)]GlcNAc(b1-3)Gal(b1-4)[Fuc(a1-3)]GlcNAc
# How it was run: as §1
# [11] = target: Neu5Ac(a2-3)Gal(b1-4)[Fuc(a1-3)]GlcNAc(b1-3)GalNAc
# How it was run: as §1
# [12] = target: Neu5Ac(a2-3)Gal(b1-4)[Fuc(a1-3)]GlcNAc(b1-6)[Gal(b1-3)]GalNAc
# How it was run: as §1
# [13] = target: Neu5Ac(a2-3)Gal(b1-4)[Fuc(a1-3)]GlcNAc(b1-6)[Neu5Ac(a2-3)Gal(b1-3)]GalNAc
# How it was run: as §1
# [14] = target: Neu5Ac(a2-3)Gal(b1-4)[Fuc(a1-3)]GlcNAc6S
# How it was run: as §1
# [15] = target: Neu5Ac(a2-3)Gal6S(b1-4)GlcNAc
# How it was run: as §1
# [16] = target: Neu5Ac(a2-3)Gal6S(b1-4)[Fuc(a1-3)]GlcNAc
# How it was run: as §1
# Neu5Ac(a2-3)GalNAc = target: Neu5Ac(a2-3)GalNAc
# How it was run: as §1
# [17] = target: Neu5Ac(a2-3)GalNAc(b1-4)GlcNAc
# How it was run: as §1
# [18] = target: Neu5Ac(a2-3)[GalNAc(b1-4)]Gal(b1-4)Glc
# How it was run: as §1
# [19] = target: Neu5Ac(a2-3)[GalNAc(b1-4)]Gal(b1-4)GlcNAc
# How it was run: as §1
# [20] = target: Neu5Ac(a2-3)[GalNAc(b1-4)]Gal(b1-4)GlcNAc(b1-3)GalNAc
# How it was run: as §1
# [21] = target: Neu5Ac(a2-3)[Neu5Ac(a2-6)]GalNAc
# How it was run: as §1
# Neu5Ac(a2-6)Gal = target: Neu5Ac(a2-6)Gal
# How it was run: as §1
# [22] = target: Neu5Ac(a2-6)Gal(b1-3)GlcNAc(b1-3)[Gal(b1-4)GlcNAc(b1-6)]Gal(b1-4)Glc
# How it was run: as §1
# Neu5Ac(a2-6)Gal(b1-4)Glc = target: Neu5Ac(a2-6)Gal(b1-4)Glc
# How it was run: as §1
# [23] = target: Neu5Ac(a2-6)Gal(b1-4)GlcNAc
# How it was run: as §1
# [24] = target: Neu5Ac(a2-6)Gal(b1-4)GlcNAc(b1-2)Man
# How it was run: as §1
# [25] = target: Neu5Ac(a2-6)Gal(b1-4)GlcNAc(b1-2)Man(a1-3)Man(b1-4)GlcNAc(b1-4)GlcNAc
# How it was run: as §1
# [26] = target: Neu5Ac(a2-6)Gal(b1-4)GlcNAc(b1-2)Man(a1-3)[Gal(b1-4)GlcNAc(b1-2)Man(a1-6)]Man(b1-4)GlcNAc(b1-4)GlcNAc
# How it was run: as §1
# [27] = target: Neu5Ac(a2-6)Gal(b1-4)GlcNAc(b1-2)Man(a1-3)[GlcNAc(b1-2)Man(a1-6)]Man(b1-4)GlcNAc(b1-4)GlcNAc
# How it was run: as §1
# [28] = target: Neu5Ac(a2-6)Gal(b1-4)GlcNAc(b1-2)Man(a1-3)[GlcNAc(b1-4)][Neu5Ac(a2-6)Gal(b1-4)GlcNAc(b1-2)Man(a1-6)]Man(b1-4)GlcNAc(b1-4)GlcNAc
# How it was run: as §1
# [29] = target: Neu5Ac(a2-6)Gal(b1-4)GlcNAc(b1-2)Man(a1-3)[Man(a1-6)]Man(b1-4)GlcNAc(b1-4)GlcNAc
# How it was run: as §1
# [30] = target: Neu5Ac(a2-6)Gal(b1-4)GlcNAc(b1-2)Man(a1-3)[Neu5Ac(a2-3)Gal(b1-4)GlcNAc(b1-2)Man(a1-6)]Man(b1-4)GlcNAc(b1-4)GlcNAc
# How it was run: as §1
# [31] = target: Neu5Ac(a2-6)Gal(b1-4)GlcNAc(b1-2)Man(a1-3)[Neu5Ac(a2-6)Gal(b1-4)GlcNAc(b1-2)Man(a1-6)]Man(b1-4)GlcNAc(b1-4)GlcNAc
# How it was run: as §1
# [32] = target: Neu5Ac(a2-6)Gal(b1-4)GlcNAc(b1-2)Man(a1-3)[Neu5Ac(a2-6)Gal(b1-4)GlcNAc(b1-2)Man(a1-6)]Man(b1-4)GlcNAc(b1-4)[Fuc(a1-6)]GlcNAc
# How it was run: as §1
# [33] = target: Neu5Ac(a2-6)Gal(b1-4)GlcNAc(b1-2)Man(a1-6)Man(b1-4)GlcNAc(b1-4)GlcNAc
# How it was run: as §1
# [34] = target: Neu5Ac(a2-6)Gal(b1-4)GlcNAc(b1-2)Man(a1-6)[Gal(b1-4)GlcNAc(b1-2)Man(a1-3)]Man(b1-4)GlcNAc(b1-4)GlcNAc
# How it was run: as §1
# [35] = target: Neu5Ac(a2-6)Gal(b1-4)GlcNAc(b1-2)Man(a1-6)[GlcNAc(b1-2)Man(a1-3)]Man(b1-4)GlcNAc(b1-4)GlcNAc
# How it was run: as §1
# [36] = target: Neu5Ac(a2-6)Gal(b1-4)GlcNAc(b1-2)Man(a1-6)[Man(a1-3)]Man(b1-4)GlcNAc(b1-4)GlcNAc
# How it was run: as §1
# [37] = target: Neu5Ac(a2-6)Gal(b1-4)GlcNAc(b1-2)[Neu5Ac(a2-6)Gal(b1-4)GlcNAc(b1-4)]Man(a1-3)[GlcNAc(b1-4)][Neu5Ac(a2-6)Gal(b1-4)GlcNAc(b1-2)[Neu5Ac(a2-6)Gal(b1-4)GlcNAc(b1-6)]Man(a1-6)]Man(b1-4)GlcNAc(b1-4)GlcNAc
# How it was run: as §1
# [38] = target: Neu5Ac(a2-6)Gal(b1-4)GlcNAc(b1-2)[Neu5Ac(a2-6)Gal(b1-4)GlcNAc(b1-4)]Man(a1-3)[GlcNAc(b1-4)][Neu5Ac(a2-6)Gal(b1-4)GlcNAc(b1-4)Man(a1-6)]Man(b1-4)GlcNAc(b1-4)GlcNAc
# How it was run: as §1
# [39] = target: Neu5Ac(a2-6)Gal(b1-4)GlcNAc(b1-2)[Neu5Ac(a2-6)Gal(b1-4)GlcNAc(b1-6)]Man(a1-6)[Neu5Ac(a2-6)Gal(b1-4)GlcNAc(b1-2)Man(a1-3)][GlcNAc(b1-4)]Man(b1-4)GlcNAc(b1-4)GlcNAc
# How it was run: as §1
# [40] = target: Neu5Ac(a2-6)Gal(b1-4)GlcNAc(b1-3)Gal(b1-3)GlcNAc
# How it was run: as §1
# [41] = target: Neu5Ac(a2-6)Gal(b1-4)GlcNAc(b1-3)Gal(b1-4)GlcNAc
# How it was run: as §1
# [42] = target: Neu5Ac(a2-6)Gal(b1-4)GlcNAc(b1-3)Gal(b1-4)GlcNAc(b1-2)Man(a1-3)[Neu5Ac(a2-6)Gal(b1-4)GlcNAc(b1-3)Gal(b1-4)GlcNAc(b1-2)Man(a1-6)]GalNAc
# How it was run: as §1
binder,measurement,setting,value
B1,glycan array binding signal (z-score),[1],1.75
same,glycan array binding signal (z-score),[2],0.801
same,glycan array binding signal (z-score),[3],-0.237
same,glycan array binding signal (z-score),[4],-0.471
same,glycan array binding signal (z-score),[5],-0.6
same,glycan array binding signal (z-score),[6],-0.373
same,glycan array binding signal (z-score),[7],-1.11
same,glycan array binding signal (z-score),[8],-0.62
same,glycan array binding signal (z-score),[9],-0.445
same,glycan array binding signal (z-score),[10],-0.651
same,glycan array binding signal (z-score),[11],0.278
same,glycan array binding signal (z-score),[12],0.021
same,glycan array binding signal (z-score),[13],2.15
same,glycan array binding signal (z-score),[14],1.8
same,glycan array binding signal (z-score),[15],-0.469
same,glycan array binding signal (z-score),[16],-0.186
same,glycan array binding signal (z-score),Neu5Ac(a2-3)GalNAc,-1.08
same,glycan array binding signal (z-score),[17],0.769
same,glycan array binding signal (z-score),[18],-0.684
same,glycan array binding signal (z-score),[19],-0.305
same,glycan array binding signal (z-score),[20],-1.36
same,glycan array binding signal (z-score),[21],0.408
same,glycan array binding signal (z-score),Neu5Ac(a2-6)Gal,-0.155
same,glycan array binding signal (z-score),[22],-0.38
same,glycan array binding signal (z-score),Neu5Ac(a2-6)Gal(b1-4)Glc,-0.251
same,glycan array binding signal (z-score),[23],0.468
same,glycan array binding signal (z-score),[24],-0.361
same,glycan array binding signal (z-score),[25],-0.027
same,glycan array binding signal (z-score),[26],-0.362
same,glycan array binding signal (z-score),[27],-0.214
same,glycan array binding signal (z-score),[28],-0.25
same,glycan array binding signal (z-score),[29],-0.403
same,glycan array binding signal (z-score),[30],-0.229
same,glycan array binding signal (z-score),[31],0.798
same,glycan array binding signal (z-score),[32],4.31
same,glycan array binding signal (z-score),[33],-0.632
same,glycan array binding signal (z-score),[34],-0.357
same,glycan array binding signal (z-score),[35],4.26
same,glycan array binding signal (z-score),[36],-0.79
same,glycan array binding signal (z-score),[37],-0.155
same,glycan array binding signal (z-score),[38],1.21
same,glycan array binding signal (z-score),[39],-0.179
same,glycan array binding signal (z-score),[40],-0.404
same,glycan array binding signal (z-score),[41],-0.043
same,glycan array binding signal (z-score),[42],4.82
